From the supplement of paper PMC3334620
In all, about 33,000 sequences were measured (“E-score (-0.5 to 0.5)”: median about -0.01, highest 2% from about 0.26 on). The list shows a part of the results.

Each sequence was assayed against Ste12 (UniProt P13574) (assay: PBM E-score (8-mer binding enrichment) (E-score (-0.5 to 0.5)); higher = stronger / more preferred TF binding; most listed sequences are background and not binding sites). Settings: protein concentration: 200 nM; construct: GST-DNA-binding domain.
Summary of the method: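 GST-tagged yeast TFs (full-length or DNA-binding domain) were made by PURExpress in vitro transcription/translation and applied at about 100-200 nM to universal all-10-mer Agilent arrays. The arrays were made double-stranded by primer extension, on fresh or once-stripped slides. Bound protein was detected with fluorescent anti-GST, and scans were normalised with masliner. Each ungapped eight-base word, pooled with its reverse complement, received an E-score (modified Wilcoxon-Mann-Whitney statistic) from the Universal PBM Analysis Suite.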

Sequence	PBM E-score
GTAAAACA	0.323
CGGCGTCC	-0.0783
CGAGCCCA	-0.159
AGTCGCCC	-0.197
ACCGCTAC	0.0074
TATAAAAA	0.27
AGAGGTAG	-0.117
AAGTCATT	-0.135
CAATGAGC	-0.115
AAGTACTA	0.0588
AATGACGT	-0.0516
ATAGCTAT	-0.174
CATCCGCG	0.0961
ATTGCGTA	-0.00669
AAGTGGCC	-0.136
TGATCCAA	0.102
CGAGGGTA	-0.0222
TAATATGA	0.226
ACTATACA	-0.0333
ACAGCTTA	0.0118
CTTGAAGA	-0.0011
CGTAATGA	0.0351
ATAAGGAT	0.234
GCCTACAC	-0.00985
CTGCGGGA	-0.13

Sequence	PBM E-score
ATTCGTGG	0.0399
AGCTCGCC	-0.0858
GCATCACA	-0.0108
GTCTTGCA	0.0305
AATCTACT	0.2
GCATCGAA	-0.114
ACGTGAGC	-0.148
AGACCGTG	-0.121
TAGGACGA	-0.101
CCGACCGC	-0.169
TAACATCA	0.126
ACCCAGGG	-0.161
GAATCCGC	-0.157
ACGCGTCA	0.0117
GTCTGACA	-0.056
ATACCGTC	0.0412
AAGTCTCC	-0.213
CATGAGCA	-0.145
CAATTGTG	0.0226
ATGCATGA	-0.00341
CTAGACTC	-0.303
AAGCCTAA	0.067
CGGCGCCG	0.0421
TAAACTCA	0.113
CGAGTCAA	-0.155

Sequence	PBM E-score
CGCAGATC	-0.142
CGACTACG	-0.159
CTGATACA	0.28
AGCCACAC	0.0621
AAACTCAT	0.261
AACTCTCC	-0.129
AGACATGC	-0.103
AGGTGCAT	-0.0738
CAGCTGTC	-0.0754
GCTACCAC	-0.152
AACACCGA	-0.0548
AAGGGGTA	0.0162
TGCGTGAA	0.0739
CGAAACAG	0.244
ATGAAGGA	0.0677
ACCTCGCG	-0.259
CTCTTTGA	-0.037
GCCACCCA	-0.106
ATCAATTG	0.154
CTGGATGC	-0.106
AACTCCTT	-0.00898
GAGTCATC	-0.0404
ACCTACCG	-0.137
CGCTGAAG	-0.0522
CCGTTGCA	0.0898

Sequence	PBM E-score
ACGTGCAG	0.103
GTTATGAA	0.221
CAATTGAA	0.187
ACTACCTC	-0.0451
GTAAGCTA	-0.12
CAAACAAC	0.223
ATAAACCC	0.211
ACTTCTGA	0.184
GGGGATGA	0.0572
CCCACACA	0.126
ACGACCTG	-0.165
TAAGCCGA	0.106
AAGTGAGC	-0.175
ACTTACCC	0.129
ACTTCGTA	-0.0272
AGCGTCAG	-0.255
CCTGATGA	0.0374
AAGAATCG	0.0677
GACAACGC	0.0429
CCGTACAA	0.0532
CGAGCCAG	-0.0693
ACACTGGT	-0.0637
ATAACGTG	-0.147
AATCCACC	-0.077
ACTGTACG	-0.215

Sequence	PBM E-score
CAAGCCAG	-0.0827
AGCCTATC	-0.0224
CAAATGGA	-0.153
ATTTTGAG	0.174
CGGTCACC	-0.188
AGCGGGCA	-0.114
CAGTTGCG	-0.107
AAGCTAAA	0.0582
ACAGTTTG	0.016
AACCGCCT	-0.0784
ACGATTAT	0.0501
AGCAGGTG	-0.0318
AACAGCTC	-0.0228
GCGCCCCA	0.056
TAAGTAAA	0.0776
AGGAAATG	0.0773
AAAGTTAG	0.157
ATGTCGCC	0.00748
CATACCAG	-0.0507
GCTGGTTA	0.0452
ATATGAAG	0.0351
CACTAGCC	-0.0332
ATGTGCAA	0.125
CACAAAAA	0.23
CTACCGGC	-0.196

Sequence	PBM E-score
ACCTTGCG	-0.041
AGAGTCCA	-0.0783
ATTCGGTG	0.025
AAGCTACT	-0.138
GACTGACA	0.0146
AAATCCGT	0.0418
GACTCTCC	-0.109
CAAAGAAA	0.214
TTCCGGAA	0.12
CTGCAAGA	0.012
ATAACCAT	-0.00569
ACCCCATG	0.178
GACAGAAC	0.133
ATTATCGG	-0.0839
GGGAGTCA	-0.0761
ACCCCGGG	-0.135
GCTCCATA	0.0209
CGTGCTCC	-0.026
AGAACTCG	-0.0556
CAGGTTTC	0.361
CCGGGTTA	-8e-05
CGTTCTGA	-0.0774
GCAGTTCA	-0.0553
AAGACCGA	0.165
AGCGCTAT	0.0744

Sequence	PBM E-score
ATTCCTAC	-0.0434
AAGTCAAT	0.0436
ATTATCCG	0.294
GTGTGCCA	-0.182
CTGTGAGA	-0.0675
AAGCGCTC	-0.0384
CGTTACTA	-0.0651
CCGGAGGC	-0.25
CTCTCACA	0.0112
AGTCACGA	-0.0773
CGGCAATC	0.0113
CGCATGGC	-0.0645
GAAAGACA	0.0466
AGAGCAAC	-0.0539
AGTATTTG	0.0776
GATGACGC	-0.0788
AACGTTAT	0.122
ATTGCGGG	0.0749
CCGGATCG	-0.0727
ACGTAACT	-0.0636
GGTCGGGA	0.0802
CTCATTCC	0.0499
ACATACCA	-0.0644
TAATGGTA	-0.00079
CCTCCCAC	0.0349

Sequence	PBM E-score
GTCTAGAC	-0.267
TAATTGCA	0.134
ATACCGCC	0.122
GTCTTGTA	-0.125
ATCTGGCC	-0.067
CGCTATTC	0.0426
AATGCCTC	0.125
CAGCCGTC	-0.0959
ATTGTATG	0.0268
ACGAGTTA	0.1
CCCCAAGA	-0.0289
GCAGCTTA	-0.0835
AAATTGTA	0.048
TAGTAACA	0.0567
CTCCATGA	0.124
AAGCGTAA	-0.0822
GAGACTTA	0.00211
AGCCATAA	0.0455
AGACATCC	-0.0397
CATTTTAC	0.254
ATTCATTC	0.239
AGGCCCCT	-0.149
TACTGCGA	-0.117
CACGGACA	-0.217
TCAAACGA	0.157

Sequence	PBM E-score
GACATATA	0.11
AGCACGAA	0.0766
CCACCCAC	0.154
AGTGAGGC	-0.131
GCCTGCTA	-0.173
AGGTTCTC	0.0357
CTTCGGCA	0.0217
ACCAAATC	-0.0444
AGATTACC	0.109
CTTATGCA	-0.00016
GTAAGTAC	-0.0734
CAGCCCGA	-0.0607
ACGCAGCG	-0.0825
AGGTAGTA	0.00015
GAAGACCA	-0.0927
ATAAGAGC	0.00898
GAGTAGAA	-0.0928
CGGAAGGC	-0.181
ACGCGGCC	-0.161
ACTCTTCC	-0.0925
AACACTGG	-0.00819
CGATGGAA	-0.0331
ACAGCCAG	-0.178
ATTCATCA	0.106
TCTAAACA	0.121

Sequence	PBM E-score
CCTGCTAA	-0.2
GCGCACCA	0.00849
AGCCGTAA	-0.0314
GAGCAGCC	-0.212
GTATGTCA	0.235
AAAATTGT	0.225
CTATGCAG	-0.201
ACAAGATC	-0.12
AAGAGGAT	-0.117
CACCTAGA	-0.163
TACTCGGA	0.126
AACCTACA	0.148
GAGGGCAA	0.161
TACTGGCA	-0.0209
CTTACGAA	0.0369
AGGAACAC	-0.084
ATGCGACG	0.0983
AGTCATTC	-0.137
GGACGTCC	-0.0929
CCCCAACC	0.0625
CTACATCC	-0.0459
CATAAGTC	-0.0556
CAGTACAC	-0.0767
AATAGTGC	0.0864
CCCGGGAG	-0.0679

Sequence	PBM E-score
GTACTGCA	-0.174
ACTGCTCT	0.0296
GTGTCAGA	0.147
GACCAATC	-0.0277
AGGGGGTC	-0.169
ATGGCCTA	-0.177
ATTAACGG	0.088
GTTGAGAA	0.0623
GACGTGCC	-0.244
TCCCTGCA	0.0798
CGCATGCA	-0.00954
AGGCCGTA	-0.0213
ACTAAGAG	-0.0255
AGTAATAA	0.116
AGCGGTGA	0.0245
GATTTCGA	0.184
CAGAACAG	-0.091
AGAAAGAC	0.0769
GAAATGCC	0.127
AAGTGATG	0.012
AGTGTTGA	0.0425
AGGGGCAA	0.0609
AGTCTAGG	-0.148
CATTGGGG	-0.165
CAGGGTTC	-0.0459

Sequence	PBM E-score
ATCCATTC	-0.048
AAAGCGAA	0.133
AATACCCA	-0.0006
AAACAAGG	0.0389
GGGACCGA	-0.136
GGTATTAC	0.0767
CGTACTGC	-0.128
AATTGCAC	0.105
AGTTCCAA	0.151
GTAAGACA	0.0839
TATTTAAA	0.379
CAGGTCGA	0.0748
ACGAAACC	0.242
GGATTCGA	0.0144
AAGTTGAG	0.14
AAGACTGT	-0.273
ACTTCTCG	0.0517
AACTCGTC	0.0375
CACTCAGC	-0.0423
CCATTTAA	0.0808
ATCCTTGG	-0.02
AGAAAAAA	0.19
AATTCGAG	-0.0401
GCACCGAA	0.0411
CCGCGTTC	0.0187

Sequence	PBM E-score
GACGATGA	0.0487
GTCCTGGA	-0.347
AAAATCGG	0.00563
ACCTGTAT	-0.023
GCCCGCGA	0.0301
CAGGGGGC	-0.114
AGCGGTAG	-0.0432
CAGGACGC	-0.105
TGTGTCAA	0.203
CAAATATA	0.0746
CTTCTCCA	-0.0874
CATATCGG	-0.00469
AGTTCCCA	0.0392
ACAGGTGA	0.0906
AGGGTCCG	-0.137
CGCGATGC	-0.182
GCAACGGA	-0.101
GTTTGAGA	0.311
CAGTACCG	0.025
TAAGCAAA	0.13
AACTCACC	0.0491
ACAATCTC	0.0621
ATAGAAGC	0.112
CGTAGAAC	-0.249
ACTGGCCG	-0.168

Sequence	PBM E-score
AGGATGTA	0.00541
GAAAAATC	0.201
GACGTTTA	-0.0439
CTGTCTAC	-0.119
CTACTAGC	0.0624
ACGACCCC	-0.0953
GGCCCCCA	-0.188
GACTTACC	-0.0955
CTCAGCGC	-0.104
GGGGGGTA	-0.168
AACAATTG	-0.0846
ACTCAAAC	0.162
ACAACAGT	-0.0193
AACGGCAT	0.0651
CAGATGAC	-0.0905
ATCCCGGG	0.0719
CCGAGTAG	0.0412
CAGCTGAA	-0.077
GGCCGCGA	-0.148
